Results published in PubChem BioAssay AID1645887 (National Center for Advancing Translational Sciences (NCATS), 2021).
Values joined by “and” are separate entries in the source; they are usually repeats but may differ in a detail not shown here. Equal entries are not always repeated. In all, about 16,000 compounds went through this assay and about 40 (0.2%) were called active. About 1% were inconclusive and are not listed. Calls follow the shape of the dose curve; as a rule, active = well fitted activation curve with a large enough effect; inconclusive = small, poorly fitted or top-dose-only effect, or another doubt; inactive = no such curve, though single readings can be large or run the other way. This is one part of the list.

These compounds were tested against Rap guanine nucleotide exchange factor 4 (Homo sapiens) (UniProt Q8WZA2) (assay: Validation qHTS for agonist of cAMP-regulated guanine nucleotide exchange factor 4 (EPAC2)). Conditions: EPAC2 Rap1B BODIPY-GDP exchange, fluorescence; activation: stronger effect = higher value.
Method in brief: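 Fluorescent exchange assay: 100 nM EPAC2 with 250 nM RAP1B-BODIPY-GDP and 50 uM GDP; compound added, 5 min at room temperature, then read (ex 480/em 540 nm) every 5 min for 30 min. Normalized to 6.5 mM cAMP agonist control.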
% is scaled to controls: 0 for no effect and ±100 for the full control effect.
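Also: exchange makes BODIPY-GDP fluorescence drop when released from Rap1B; series mostly up to about 150 µM.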

Sequence of UniProt Q8WZA2 (Q8WZA2 whole entry, looked up): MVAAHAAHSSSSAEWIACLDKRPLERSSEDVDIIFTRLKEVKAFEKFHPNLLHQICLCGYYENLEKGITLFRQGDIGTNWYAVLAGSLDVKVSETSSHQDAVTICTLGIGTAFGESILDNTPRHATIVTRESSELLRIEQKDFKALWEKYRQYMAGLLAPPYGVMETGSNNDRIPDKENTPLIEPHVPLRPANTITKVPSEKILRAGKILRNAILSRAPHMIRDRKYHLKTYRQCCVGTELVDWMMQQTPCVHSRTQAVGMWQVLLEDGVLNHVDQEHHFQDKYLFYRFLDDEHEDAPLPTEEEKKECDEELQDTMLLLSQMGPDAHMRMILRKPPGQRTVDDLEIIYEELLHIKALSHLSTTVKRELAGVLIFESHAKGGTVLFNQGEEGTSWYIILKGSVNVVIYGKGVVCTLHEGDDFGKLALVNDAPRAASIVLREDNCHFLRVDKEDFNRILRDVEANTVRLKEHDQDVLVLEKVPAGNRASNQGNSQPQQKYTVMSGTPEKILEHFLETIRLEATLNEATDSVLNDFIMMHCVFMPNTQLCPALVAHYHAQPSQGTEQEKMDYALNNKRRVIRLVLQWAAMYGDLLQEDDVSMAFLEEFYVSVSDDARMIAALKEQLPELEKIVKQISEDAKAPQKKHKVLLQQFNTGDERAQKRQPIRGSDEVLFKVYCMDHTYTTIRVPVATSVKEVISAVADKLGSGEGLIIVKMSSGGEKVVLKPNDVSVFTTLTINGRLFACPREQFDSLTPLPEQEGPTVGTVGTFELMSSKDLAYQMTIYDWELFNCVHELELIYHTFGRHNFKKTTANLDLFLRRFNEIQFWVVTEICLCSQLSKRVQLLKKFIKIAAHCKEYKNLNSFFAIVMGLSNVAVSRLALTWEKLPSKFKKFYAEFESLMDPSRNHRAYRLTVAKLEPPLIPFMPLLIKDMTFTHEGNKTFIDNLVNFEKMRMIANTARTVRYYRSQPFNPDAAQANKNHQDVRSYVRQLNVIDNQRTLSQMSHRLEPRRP

activation, inactive:
N#Cc1cccc(-c2ccc3ncnc(NCc4cccs4)c3c2)c1 -7.54%, COc1cc(=O)n2c(c1C(=O)N(C)Cc1ccsc1)CCN(Cc1c(C)nc3sccn13)CC2 -1.8%, CCOc1cc(CC(=O)N[C@@H](CC(C)C)c2ccccc2N2CCCCC2)ccc1C(=O)O -1.46%, COc1cc2c(cc1OC)C1(O)C(=O)c3ccc(O)c(C(=O)O)c3OC1CO2 (stereo not drawn) -15%, COc1ccc(C(=O)NCC2Cc3cc(C)cc(-c4cc(C(C)=O)ccc4F)c3O2)c(OC)c1OC (stereo not drawn) -16.9%, c1cncc(-c2nc(NCCN3CCOCC3)c3ccccc3n2)c1 -19.1%, CC1(O)/C=C\C=C(\CO)C2CC(C)(C)C2(O)CC1 (stereo not drawn) -14.6%, CCC(C(N)=O)c1ccccc1 (stereo not drawn) 3.55%, O=c1c(-c2ccc(Cl)cc2)nc2cnc(N3CCNCC3)nc2n1-c1ccccc1 -9.17%, CC(=O)N[C@@H](C)C(=O)NCC1Cc2cccc(-c3ccccc3C(F)(F)F)c2O1 (stereo partly drawn) -4.97%, CC(=O)OC1CC2C(C)(C)C=CC(=O)[C@@]2(C)C2CC[C@@]3(C)C(c4ccoc4)OC(=O)C4OC43[C@]12C (stereo partly drawn) -30.8%, CCNc1ncc2nc(-c3ccccc3)c(=O)n(-c3ccc(OC)cc3)c2n1 -13%, Cc1ccccc1C1(CC(=O)N2CCCCC2c2cccnc2)CC(=O)N(C2CCCC2)C1=O (stereo not drawn) -17.2%, C=CCCCCCCCCCCCC(O)CC(O)COC(C)=O (stereo not drawn) (tested in a mixture with another compound) -51%, O=C(O)c1ccc(OCCn2ccnc2)cc1 -23.5%, COc1ccc(CNC(=O)C[C@H]2C(=O)N(Cc3ccc(OC)cc3)C[C@@H]2Cc2ccccc2)cc1 -16.8%, NC(CCCP(=O)(O)O)C(=O)O (stereo not drawn) 11.7%, O=C(O)COc1ccc(CCNS(=O)(=O)c2ccccc2)s1 2.15%, CCCS(=O)(=O)NCc1c(C)ncc2c1CCN(C(=O)c1ccc(F)c(F)c1)C2 -5.94%, COc1cc(-c2cc(C)c3cccc(OC)c3n2)cc2c1OCCN(C(=O)CCn1ccc(C)n1)C2 -12.7%, COCCn1c(=O)cnc2cnc(OCc3ccccc3)nc21 -12.6%, O=c1c(-c2cccs2)nc2cncnc2n1-c1ccccc1 -19.8%, C#C[C@]1(O)CC[C@H]2[C@@H]3CCc4cc(O)ccc4[C@H]3CC[C@@]21C -32.1%, CCCCN(CCCC)CCC(O)c1cc2c(Cl)cc(Cl)cc2c2cc(C(F)(F)F)ccc12 (stereo not drawn) -6.66%, [O]=[Bi][O]C(=O)[O][Bi]=[O] -24.7%, Cc1occc(=O)c1O -3.85%, COc1cccc(C=NC=Nc2cccc(OC)c2)c1 10.1%, C[N+](C)(CCCCCC[N+](C)(C)CCCN1C(=O)c2cccc3cccc(c23)C1=O)CCCN1C(=O)c2cccc3cccc(c23)C1=O -53.8%, C[C@H](NC[C@H](O)CP(=O)(O)CC1CCCCC1)c1ccc(Cl)c(Cl)c1 -12.9% and -5.46%, CC(C)=CC1C(CO)C1(C)C (stereo not drawn) -1.61%, CC(C)n1cnc2c(NCc3ccccc3)nc(NCCO)nc21 3.46%, Nc1nc2c(ncn2COCCO)c(=O)[nH]1 -7.27% and 3.82% and -11.9%, CN(C)c1nc(-c2cccc(NS(C)(=O)=O)c2)nc2ccccc12 0.3%, COC(=O)C1=C(C(=O)OC)[C@]2([C@H]3C/C=C\CN[C@@H](Cc4ccccc4)C(=O)N3Cc3ccccc3)C=C[C@H]1O2 -9.39%, O=Nc1ccc(/C=C/c2ccnc3ccccc23)cc1 -6.53%, NC(=O)n1c(O)c(C(=O)c2cccs2)c2cc(Cl)ccc21 -20.6%, COCC(=O)N1CCC2(CC1)CCN(c1ccc(-c3ccccc3)cc1)CC2 -15.6%, CCN(CC)c1ccc(N=Nc2ccc(S(=O)(=O)N(C)C)cc2)c(S(=O)(=O)NCC[n+]2ccccc2)c1 -34.1%, COC(=O)c1ccccc1-c1cc(C)cc2c1OC(CNC(=O)C1CCOC1)C2 (stereo not drawn) 2.27%, Cc1cc(NC2CCCCC2)nc(-n2nc(C)cc2C)n1 -23.5%, NCCSSCCN 1.32% and -27.5%, CC(C)CN1CCC(=O)N([C@H](CSc2ccccc2)Cc2ccccc2)CC1 -11.2%, CC(C)NCC(O)c1ccc(O)c(O)c1 (stereo not drawn) -16.8% and 1.61% and -17%, Nc1ccc(O)cc1 25.8% and 23.8%, CC1CCC2(OC1)OC1CC3C4CC[C@@H]5CC(O)CC[C@@]5(C)C4CC(=O)[C@]3(C)C1C2C (stereo partly drawn) 0.518%, CC(C)(C)NC(=O)[C@@H]1C[C@@H]2CCCC[C@@H]2CN1C[C@@H](O)[C@H](Cc1ccccc1)NC(=O)[C@H](CC(N)=O)NC(=O)c1ccc2ccccc2n1 -37.2%, O=C(NCC1Cc2cccc(-c3cncnc3)c2O1)C1CC1 (stereo not drawn) -13.5%, CN1CCN(c2ncnc3ccc(-c4ccccc4C(F)(F)F)cc23)CC1 -1.99%, C[C@@H]1CCC(=O)N(CC[C@H](Sc2ccccc2)c2ccccc2)CC1 -27.3%, CCN1CCCC1CNCc1cc2ccc(SC)cc2nc1-c1cc(OC)ccc1OC (stereo not drawn) 0.33%, COc1cc(=O)n2c(c1C(=O)N(C)Cc1cscn1)CCN(C(=O)c1cccc(C)c1C)CC2 -11.8%, COc1ccccc1CNc1ccnc(-c2cccc(NS(C)(=O)=O)c2)n1 -2.38%, O=c1cc(-c2ccccc2O)oc2cc(O)ccc12 -16.1%, CC1OC(n2cc(F)c(=O)[nH]c2=O)C(O)C1O (stereo not drawn) -5.86%, CCCCCN(CCCCC)C(=O)C(CCC(=O)O)NC(=O)c1ccc(Cl)c(Cl)c1 (stereo not drawn) -21.5% and -23%, N#CCCn1c(=O)c(-c2ccccc2)nc2cnc(Nc3ccccc3)nc21 10.7%, O=C(C[n+]1cccc(Br)c1)c1ccc(-c2ccccc2)cc1 -9.15%, COc1ccc(C(=O)c2ccccc2)c(O)c1 -26.9% and -24.2%, NCCCCCCNS(=O)(=O)c1cccc2ccccc12 -2.55%, C#CCCCCCCCCCCCC(O)CC(O)COC(C)=O (stereo not drawn) -27.6%, O=C(Oc1ccccc1)c1ccccc1O -13.3%, O=c1c(-c2ccc(Cl)cc2)nc2cnc(N3CCNCC3)nc2n1Cc1ccc(F)cc1 6.27%, COc1ncnc(NS(=O)(=O)c2ccc(N)cc2)c1OC 6.44%, CC(=O)OCC(=O)[C@@]1(O)[C@H](C)C[C@H]2[C@@H]3CCC4=CC(=O)C=C[C@]4(C)[C@@]3(F)[C@@H](O)C[C@@]21C -1.06%, Cc1cc(C(=O)Nc2cccc(-c3nc(CNC(=O)c4ccc[n+]([O-])c4)c(C)o3)c2)c(C)o1 -3.79%, O=C(c1ccc2c(c1)OCO2)N1CCCCC1 -20%, O=C(C[N+]12CN3CN(CN(C3)C1)C2)c1ccc(Br)cc1 -17.2%, CC(=O)O[C@H]1C(=O)[C@@]2(C)C([C@H](OC(=O)c3ccccc3)[C@]3(O)C[C@H](OC(=O)[C@H](O)[C@@H](NC(=O)c4ccccc4)c4ccccc4)C(C)=C1C3(C)C)[C@]1(OC(C)=O)CO[C@@H]1C[C@@H]2O (stereo partly drawn) -15.8% and -4.54%, CN(C)c1ccc(/C=c2\[nH]c(=O)/c(=C/c3ccc(N(C)C)cc3)[nH]c2=O)cc1 -10.5%, COc1ccc(C(=O)CC(=O)c2ccc(C(C)(C)C)cc2)cc1 1.24%, N#CCCn1c(=O)c(CCc2ccccc2)nc2cnc(OCc3ccccc3)nc21 -4.19%, COc1cc(CN2CCC3(CCC(CNC(=O)c4ccco4)O3)CC2)ccc1O (stereo not drawn) -27.4%, COc1ccc2[nH]cc(CCNc3ncncc3-c3c(C)noc3C)c2c1 -11.7%, OC(c1cc(C(F)(F)F)nc2c(C(F)(F)F)cccc12)C1CCCCN1 (stereo not drawn) -11.8%, COc1cc(=O)n2c(c1C(=O)NCc1nonc1C)CCN(Cc1c[nH]c3ccccc13)CC2 4.81%, Fc1ccc(Nc2ncncc2-c2ccccc2C(F)(F)F)cc1 -17.7%, Cc1ccccc1-c1cc2c(c(OC3CCOC3)c1)OCCN(C(=O)Cn1cccn1)C2 (stereo not drawn) -13.4%, O=C(c1cccc(F)c1)N1CCC[C@@]2(CCN(c3ncccn3)C2)C1 -1.21%, COC(=O)CC1C(C)(C)C2(O)OC34CC2C(=O)[C@@]1(C)C3CC[C@]1(C)C4=CC(=O)OC1c1ccoc1 (stereo partly drawn) -10.6%, COc1ccc2c(c1)c(CC(=O)N1CCOCC1)c(C)n2C(=O)c1ccc(Cl)cc1 -8.32% and 7.39%, CC(=O)N[C@@H](C(=O)O)C(C)(C)SN=O -0.706%, O=c1c(-c2ccccc2)nc2cnc(Oc3ccccc3)nc2n1C[C@H]1CCCO1 -7.62%, Cc1nc2cc(NC(=O)[C@@H]3C[C@@H](Sc4ccccn4)CN3Cc3cccc(F)c3)ccc2s1 1.16%
